The text below walks through data of the supplement of paper PMC3334620.

In all, about 33,000 sequences were measured (“E-score (-0.5 to 0.5)”: median about -0.036, highest 2% from about 0.37 on). The list shows a part of the results.

The assay addresses T1, Yer064c (UniProt P40041).
T1 sequence: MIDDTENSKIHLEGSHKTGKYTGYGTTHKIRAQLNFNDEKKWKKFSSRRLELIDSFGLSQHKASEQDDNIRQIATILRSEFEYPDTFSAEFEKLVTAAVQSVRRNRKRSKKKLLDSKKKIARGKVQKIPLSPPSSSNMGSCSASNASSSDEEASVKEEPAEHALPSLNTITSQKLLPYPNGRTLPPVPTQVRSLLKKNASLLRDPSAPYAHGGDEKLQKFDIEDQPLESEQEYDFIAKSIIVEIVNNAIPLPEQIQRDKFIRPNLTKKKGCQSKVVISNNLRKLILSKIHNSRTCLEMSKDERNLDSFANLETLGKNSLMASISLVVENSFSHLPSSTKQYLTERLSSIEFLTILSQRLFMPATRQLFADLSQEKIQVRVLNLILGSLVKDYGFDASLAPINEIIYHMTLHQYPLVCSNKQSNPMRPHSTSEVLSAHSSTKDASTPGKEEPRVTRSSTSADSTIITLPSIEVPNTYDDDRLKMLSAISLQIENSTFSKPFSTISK
The experiment in a line: PBM E-score (8-mer binding enrichment) (E-score (-0.5 to 0.5)); higher = stronger / more preferred TF binding; most listed sequences are background and not binding sites. The note with it: protein concentration: 200 nM; construct: GST-full length. Put shortly: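 Using PURExpress in vitro transcription/translation, GST-tagged yeast transcription factors were made in full-length or DNA-binding-domain form. These were applied at about 100-200 nM to double-stranded universal all-10-mer Agilent arrays, and bound protein was detected with fluorescent anti-GST. Scans were normalised with masliner before the Universal PBM Analysis Suite assigned E-scores to ungapped eight-base words pooled with their reverse complements.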
With AAGACATA, the “PBM E-score” value was -0.0777.
To AACAAGTC belongs 0.226; to AGCACCCC, -0.32.
To GGACATAA belongs -0.124; to GTGAGTTA, 0.263; to AGTGATGA, 0.261.
As for CGCGGGAA, the figure is -0.0482; as for ACCCAGGC, 0.0836.
As to CCGCCGAA, the “PBM E-score” value worked out at 0.0178.
To CAACTGAA belongs 0.0525; to ATGGGGCA, -0.27.
To GGAGATCA belongs -0.0123; to AGTATTAA, 0.164.
Regarding CTCGCAAG, the “PBM E-score” value is 0.00665.
To CACGGGAC belongs 0.0352; to GCCCAAGC, -0.263; to AATGCGAC, 0.068.
To GGTCGCCA belongs -0.102; to GCTTGGAC, -0.0998; to AGTAGCGC, -0.0178.
To CTAAATTA belongs 0.278; to GCAGCCGC, -0.19.
Regarding AAAACTTG, the “PBM E-score” value is -0.0825.
For the sequence CGGGCCAC, the “PBM E-score” value was -0.31.
As for CCATCCTA, the figure is 0.0627; as for ATTAACCC, 0.119.
As for ACTAGTGA, the figure is 0.105; as for TAGAATCA, 0.362.
As for CTCCCTTA, the figure is -0.0979; as for CCCATGTC, 0.00167.
With AAGGTGCT, the “PBM E-score” value was -0.24.
As for CCCAATGA, the figure is 0.118; as for TCGAAAGA, 0.167; as for GACTAGGC, 0.297.
As for CTAAGCAC, the figure is 0.0802; as for GGTATGGA, -0.037.
To AACAACCA belongs 0.13.
For the sequence CTCCATCC, the “PBM E-score” value was -0.118.
As to CATCACGG, the “PBM E-score” value was -0.11.
Take ACGCGTAG: the “PBM E-score” value turned out to be 0.0591.
To GGATCTAC belongs -0.0229.
Take ATACAAGA: the “PBM E-score” value is 0.0961.
As for CGATGTAA, the figure is -0.144; as for AACTGACC, -0.163; as for CACGAGAA, -0.2.
As for CTCGTGAA, the figure is 0.159.
As for CCATCGGA, the figure is -0.00521; as for GACCTAGC, -0.158.
With GCGGTTAA, the “PBM E-score” value worked out at 0.051.
To GTGAACGA belongs -0.00316; to GCTTTTAC, -0.015.
As for CCGGCACA, the figure is -0.0422; as for AGAGGCCG, -0.219.
As for ATATAAAA, the figure is 0.166.
ACGGTTTA: the “PBM E-score” value is -0.133.
As for ACTTATCT, the figure is 0.169; as for ATTGATGC, -0.0401.
To CGATCGAG belongs 0.026; to GCATAACA, -0.121.
As for GCATGGAC, the figure is -0.091; as for CTGAATCA, 0.455; as for CAGACCGG, -0.211.
Consider CGAGACAC, for which the “PBM E-score” value stood at 0.13.
On to AGGCCAAC, for which the “PBM E-score” value was -0.0789.
As for GTTGTTTA, the figure is 0.0972; as for ATCTTGGA, 0.118.
As for ACTCTAGA, the figure is 0.281.
As for CCCTAATC, the figure is 0.0125; as for CATGCCCA, -0.249; as for ACGAAAGG, -0.126.
In the case of ACGAAGTC, the “PBM E-score” value was 0.309.
With ACACTCAT, the “PBM E-score” value worked out at 0.25.
To GCGGCCGC belongs -0.326.
As for CAACGACG, the figure is -0.206.
For the sequence AGCGTGTG, the “PBM E-score” value was -0.0422.
To ATAAACGA belongs 0.0651; to CGCATGCG, -0.285.
As for ACGGTCGA, the figure is -0.208; as for CGTGGACA, -0.323; as for AACCGTTG, -0.0353.
With ACAGGGCC, the “PBM E-score” value was -0.251.
As for CTAGGAAC, the “PBM E-score” value was -0.187.
Take CTACAGCC: the “PBM E-score” value is -0.134.
To AAAACTGC belongs -0.0523.
As for CTGAATGA, the figure is 0.219.
As for AAAGCCGT, the “PBM E-score” value is -0.171.
